Measured values taken from the supplement of paper PMC3334620.
Over roughly 33,000 sequences, “E-score (-0.5 to 0.5)” has its median near -0.041; the highest 2% begin near 0.37. This is one part of the list.

The sequences below were run against T1, Ecm22 (UniProt Q05958) (assay: PBM E-score (8-mer binding enrichment) (E-score (-0.5 to 0.5)); higher = stronger / more preferred TF binding; most listed sequences are background and not binding sites). Conditions: protein concentration: 200 nM; construct: GST-full length.
T1 sequence: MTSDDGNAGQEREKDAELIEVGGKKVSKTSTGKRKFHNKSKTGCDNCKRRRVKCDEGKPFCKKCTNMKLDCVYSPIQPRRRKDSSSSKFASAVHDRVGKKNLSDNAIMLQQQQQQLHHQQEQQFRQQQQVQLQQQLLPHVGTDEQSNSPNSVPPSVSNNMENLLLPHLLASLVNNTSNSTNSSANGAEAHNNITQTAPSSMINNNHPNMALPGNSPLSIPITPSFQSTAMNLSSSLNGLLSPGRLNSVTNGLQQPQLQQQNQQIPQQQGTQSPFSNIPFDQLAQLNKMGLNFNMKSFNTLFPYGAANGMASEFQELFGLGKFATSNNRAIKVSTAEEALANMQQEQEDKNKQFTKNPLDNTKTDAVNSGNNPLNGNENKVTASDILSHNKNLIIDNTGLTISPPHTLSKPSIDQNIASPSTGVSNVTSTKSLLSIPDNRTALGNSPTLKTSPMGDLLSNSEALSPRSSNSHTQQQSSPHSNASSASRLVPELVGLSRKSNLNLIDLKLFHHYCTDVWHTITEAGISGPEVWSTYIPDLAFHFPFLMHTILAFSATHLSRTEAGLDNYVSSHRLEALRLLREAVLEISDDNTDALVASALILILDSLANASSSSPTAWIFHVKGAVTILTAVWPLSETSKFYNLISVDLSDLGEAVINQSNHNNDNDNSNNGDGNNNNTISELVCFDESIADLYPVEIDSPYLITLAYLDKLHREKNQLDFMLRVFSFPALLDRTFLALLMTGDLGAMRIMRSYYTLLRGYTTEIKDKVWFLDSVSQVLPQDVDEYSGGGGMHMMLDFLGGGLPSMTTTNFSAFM
Summary of the method: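 Yeast transcription factors carrying a GST tag, as full-length proteins or DNA-binding domains, were produced by PURExpress in vitro transcription/translation. About 100-200 nM protein was applied to universal all-10-mer Agilent arrays, double-stranded by primer extension on fresh or once-stripped slides. Bound protein was detected with fluorescent anti-GST, and scans were normalised with masliner. The Universal PBM Analysis Suite gave each ungapped eight-base word, pooled with its reverse complement, an E-score, a modified Wilcoxon-Mann-Whitney statistic.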

Sequence	PBM E-score
ACTAAACC	-0.00061
CAGAATCC	-0.0929
CCGTTGAA	-0.0547
ATGGTTAC	0.0519
CGCCACCA	-0.118
GCGTAACC	-0.0614
CATATAGC	0.0216
GTCGCCAC	0.0996
AAGTAAAC	0.294
ATGGATAC	0.038
AAACAAAG	-0.087
TCTGGTAA	0.0285
AGAACTCT	-0.12
GTACCGAC	0.252
CGTGGCAA	-0.281
TCATTTAA	-0.172
CGATAGTC	0.11
CCACACCA	-0.0379
GAGAGGCA	-0.0708
AGGCACCG	0.0118
ATACCGGC	0.0527
CTGTTTAA	-0.194
AATCGCAA	0.138
CACATCTG	-0.134
CTTTCGGC	-0.298

Sequence	PBM E-score
CCTTCGTA	0.453
TAAGCTAA	0.042
AGTACGGG	0.196
CTGGGCTC	-0.0303
CAATGGAC	0.0188
CTCGGGCC	-0.0196
ACTTAACT	-0.188
CGAGTCCA	0.0533
CCCAGACC	-0.144
GAGCGAAA	0.272
ACCACAAC	0.0744
ATTTAGCG	0.115
ACTGCATA	-0.00908
GACTGCTA	-0.279
CCGCCCAG	-0.034
CACACTAA	0.0795
GACCGTGC	-0.114
AAGGGTGA	-0.00576
CCGTCTCC	0.0539
CAGGAGCG	0.0742
GTGAGCGA	0.191
AGGCTGAA	-0.27
AGAGACCC	-0.19
ACTCGTAT	0.479
CAGGCATA	-0.129

Sequence	PBM E-score
GATAGCAC	-0.103
TCCCACCA	-0.122
GAAGCCGC	-0.0184
CGGAACAG	0.0524
GACTGCTC	-0.0681
AAGTACGA	0.448
GGGACGGA	-0.304
AGTGCTCC	-0.101
CGAACCAC	0.234
AACCGATT	0.233
ATGTATCA	0.0493
AAAATGTT	-0.103
GTAAATCA	0.153
GCTGGACC	-0.235
GAGTAATC	-0.0897
AGAATCAG	-0.158
CACGCATA	-0.102
AGAATCTG	-0.0251
GCTAAAAA	-0.0885
ACGTCTTA	0.116
CAGAGTAC	0.013
TAACTAAA	-0.149
GACGGGCC	-0.0352
CGCTGCCG	-0.159
CCGCGGCC	0.14

Sequence	PBM E-score
AGCGTTTA	0.168
TGCCTAAA	-0.0869
CAACGCTG	0.0478
ACTAGGTG	-0.192
GTCCGCTA	0.133
GAAGTGAA	-0.0727
AGCGCCCA	-0.338
GCGCCGCA	-0.0484
ATTAGGTA	0.045
GCGCATAA	0.0307
ATCTCCCA	-0.06
GCATAGGA	-0.0566
ATCTTACC	0.0694
AATATCCT	-0.0852
CCGGTCAG	-0.175
ATCCGGTC	0.0214
GTCCATAA	-0.283
GGGGCAAA	-0.189
GCCGAAGA	0.202
GCCTAGCA	-0.213
ACTGCAAC	-0.139
CATCTAAA	0.0553
GACATGTA	-0.0849
AAATGCCT	-0.168
GGGAGGAC	-0.128

Sequence	PBM E-score
ACCGAAGT	0.207
CGGACACA	-0.0508
ATGCCTCC	-0.151
CCCTCAGA	-0.169
GAACCCCC	-0.215
AATAGTCC	-0.216
AATTTCCT	-0.198
AGACTATA	0.151
CAGGATCC	-0.0144
CGCTTGCC	-0.041
CACGGACG	-0.0335
TTAGAGAA	-0.274
AGTAAACC	-0.0723
CAATTAAA	-0.018
CGACGTCA	0.104
CGTTTCAC	0.258
ACACGAAC	0.237
ATCGTCAT	0.0875
CACTAACA	-0.105
ACGACTGG	0.3
CCTGCCTC	0.142
CCCGTACG	0.402
CCTTCAAC	-0.276
CGGGGCAA	-0.0872
GCTTGGCC	-0.0878

Sequence	PBM E-score
CTAGAATC	0.00647
CTTTAAAG	-0.17
CATGTCAG	-0.35
CTGTCACC	-0.15
AGTTGACG	-0.0407
AGTGAGCC	-0.242
GATCAAAC	0.169
GAAGCCTA	-0.0357
TCAGCCCA	-0.182
CATCACTC	-0.0911
ACATATTA	0.0131
CTGGTAAG	-0.0136
AAGAGGAA	-0.0606
AGGTTTGA	-0.0857
GGCGGTAC	0.179
GATGCGCA	-0.147
ATGTGTGG	-0.227
TCAGCGCA	-0.208
ACAAATAT	0.0544
GGAGCGTA	0.174
TCTCTCAA	-0.0797
AGACAACA	0.0125
AAACTAAC	0.139
AAGACACC	-0.0175
ATTAGTCC	-0.141

Sequence	PBM E-score
ACTCGTTA	0.348
GGTGTAGA	-0.102
AGCACCGG	-0.149
ATCTCCAC	-0.101
AATAAAAT	-0.165
GCCTGGCA	-0.318
GATTCCCA	-0.144
AAGCGTTC	-0.0157
AGCATCCT	-0.0208
AGACATCT	0.0773
AAAGCTTA	-0.042
ACAACCAA	-0.143
GAGCATAC	0.0872
AGTCCCAC	-0.192
CGAATTCC	0.212
ATGCAATA	-0.167
GCAACAAC	0.0235
CGAAATAA	0.198
TCACTTCA	-0.32
CTCAGCCA	-0.185
TAATAAAA	-0.115
CACACCCG	0.085
